# The other results are listed elsewhere or left out.
# What was measured:
# Test in all cases: glycan array binding signal (z-score within array); higher = stronger binding
# Conditions in all cases: glycan notation: IUPAC condensed, linker removed
# [1] = target: Fuc(a1-2)Gal
# Summary of the method: (§1)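 Glycan array data were curated from 3228 arrays in the Consortium for Functional Glycomics database and kept only where the protein sequence was available. Glycan names were converted to IUPAC-condensed notation, and columns mapping to the same glycan were averaged. The binding signal is a within-array Z-score, averaged across arrays of the same protein sequence at different concentrations or buffers and across linkers. Negative Z-scores can be read as non-binding.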
# [2] = target: Fuc(a1-2)Gal(b1-3)GalNAc
# Summary of the method: as §1
# [3] = target: Fuc(a1-2)Gal(b1-3)GalNAc(b1-3)Gal
# Summary of the method: as §1
# [4] = target: Fuc(a1-2)Gal(b1-3)GalNAc(b1-3)Gal(a1-4)Gal(b1-4)Glc
# Summary of the method: as §1
# [5] = target: Fuc(a1-2)Gal(b1-3)GalNAc(b1-3)Gal(b1-4)Glc
# Summary of the method: as §1
# [6] = target: Fuc(a1-2)Gal(b1-3)GalNAc(b1-4)[Neu5Ac(a2-3)]Gal(b1-4)Glc
# Summary of the method: as §1
# [7] = target: Fuc(a1-2)Gal(b1-3)[Fuc(a1-4)]GlcNAc
# Summary of the method: as §1
# [8] = target: Fuc(a1-2)Gal(b1-4)Glc
# Summary of the method: as §1
# [9] = target: Fuc(a1-2)Gal(b1-4)Glc6S
# Summary of the method: as §1
# [10] = target: Fuc(a1-2)Gal(b1-4)GlcNAc
# Summary of the method: as §1
# [11] = target: Fuc(a1-2)Gal(b1-4)GlcNAc(b1-3)Gal(b1-4)GlcNAc
# Summary of the method: as §1
# [12] = target: Fuc(a1-2)Gal(b1-4)GlcNAc(b1-3)Gal(b1-4)GlcNAc(b1-3)Gal(b1-4)GlcNAc
# Summary of the method: as §1
# [13] = target: Fuc(a1-2)Gal(b1-4)GlcNAc6S
# Summary of the method: as §1
# [14] = target: Fuc(a1-2)Gal(b1-4)[Fuc(a1-3)]GalNAc(b1-3)Gal(b1-4)[Fuc(a1-3)]GlcNAc
# Summary of the method: as §1
# [15] = target: Fuc(a1-2)Gal(b1-4)[Fuc(a1-3)]GalNAc(b1-3)Gal(b1-4)[Fuc(a1-3)]GlcNAc(b1-3)Gal(b1-4)[Fuc(a1-3)]GalNAc
# Summary of the method: as §1
# [16] = target: Fuc(a1-2)Gal(b1-4)[Fuc(a1-3)]GlcNAc
# Summary of the method: as §1
# [17] = target: Fuc(a1-2)Gal6S(b1-4)Glc
# Summary of the method: as §1
# [18] = target: Fuc(a1-2)Gal6S(b1-4)Glc6S
# Summary of the method: as §1
# [19] = target: Fuc(a1-2)Gal6S(b1-4)GlcNAc
# Summary of the method: as §1
# [20] = target: Fuc(a1-2)GlcNAc
# Summary of the method: as §1
# [21] = target: Fuc(a1-2)[Gal(a1-3)]Gal
# Summary of the method: as §1
# [22] = target: Fuc(a1-2)[Gal(a1-3)]Gal(b1-3)GlcNAc
# Summary of the method: as §1
# [23] = target: Fuc(a1-2)[Gal(a1-3)]Gal(b1-4)Glc
# Summary of the method: as §1
# [24] = target: Fuc(a1-2)[Gal(a1-3)]Gal(b1-4)GlcNAc
# Summary of the method: as §1
# [25] = target: Fuc(a1-2)[Gal(a1-3)]Gal(b1-4)[Fuc(a1-3)]GlcNAc
# Summary of the method: as §1
# [26] = target: Fuc(a1-2)[Gal(a1-4)]Gal(b1-4)GalNAc
# Summary of the method: as §1
# [27] = target: Fuc(a1-2)[GalNAc(a1-3)]Gal
# Summary of the method: as §1
# [28] = target: Fuc(a1-2)[GalNAc(a1-3)]Gal(b1-3)GlcNAc
# Summary of the method: as §1
# [29] = target: Fuc(a1-2)[GalNAc(a1-3)]Gal(b1-4)Glc
# Summary of the method: as §1
# [30] = target: Fuc(a1-2)[GalNAc(a1-3)]Gal(b1-4)GlcNAc
# Summary of the method: as §1
binder,measurement,setting,value
"Epa1 (Candida glabrata), Q6FUW5_CANGA (protein) MILNPALFLNKCVCIYTTLILLLLTNGGYATSSNDISLASKDPTTFPLGCSPDITTPKKGLSMELYSYDFRKKGSYPCWDAAYLDPNYPRTGYKSHRLLAKVDGVTGNINFYYHATKGCTPQLGHLPASYNYPKPLTMTNFTMLLYGYFRPKVTGFHTFTISADDLLFVNFGAGNAFDCCRRDSSADHFGNYQAYAIWGSKTAKDELTVHLDAGVYYPIRLFYNNREYDGALSFTFKTESNENTVSDFSEYFFSLDDTEEGCPGLISYDSSCASVKTSKIIGIDYHTETPNENLVPITKTIYHLGIPCTGTTTTPLCGSGFYDPLANKCVTINTSSTSSVTKTTSHTTSKEVSFHSSISSQKTLIPKSIPSPYGPIKSQSIPTEMETSSEISSSEYAFSDVISTPSHSPYTKKHSSLNSSSYTSTVIHSLTSYSISQGIFSTSLSEQNITSKSSTDKFSTATSMSNSITQSSIIISQSSTNNENYTTTSMHTSSDKISTETLNNSISTTTSILFSNSSTILKNNTTIISSDKDTHYHPVNPTIVCSTNKTEIICASITQPSISNSNNHWSSSVLRFNSTTVRSTLPSSAGSNETSINVPFSSSTESNASTSSTSTSNSKTVRSTLPSSAGSNETSINVPFSSSTESNTSTSSTSTSNSKTVRSTLPSSAGSNETSINVPFSSSTESNASTSSTSTSNSKTVRSTPFSSAGIIMTSLSQRNNKSASSYASSNSKCYNTADSCRKVHSTPSYLLTSSYTSEGVDYDCSLVSTKLKINDTNCLNNKHTTKSCLKTSVTTTIPTLEIKTARKSSSNTIGLHSYPTSSPNKSISSAPIIGYISSFKTIKTASPSYQTSDLTTITTITSLNNPGSTAVENTHESNDKSRKTSSNDISSKHSVIKETKDAVESSNKSHQTNTLKCSSIIIASSSHNSYESLGGTTLTLTLSKVYSPQNNDTLPFLEISEVNPSRTVLPESSKMMQYLTSTEERNKTARNTIATNIVSISTFHFEGEGNAIRMGYTQLLLMLIGIIVMNIGT",glycan array binding signal (z-score),[1],-0.551
same,glycan array binding signal (z-score),[2],-0.554
same,glycan array binding signal (z-score),[3],-0.555
same,glycan array binding signal (z-score),[4],-0.549
same,glycan array binding signal (z-score),[5],-0.554
same,glycan array binding signal (z-score),[6],-0.198
same,glycan array binding signal (z-score),[7],-0.553
same,glycan array binding signal (z-score),[8],-0.556
same,glycan array binding signal (z-score),[9],-0.553
same,glycan array binding signal (z-score),[10],-0.552
same,glycan array binding signal (z-score),[11],-0.548
same,glycan array binding signal (z-score),[12],-0.555
same,glycan array binding signal (z-score),[13],1.65
same,glycan array binding signal (z-score),[14],-0.555
same,glycan array binding signal (z-score),[15],-0.55
same,glycan array binding signal (z-score),[16],-0.553
same,glycan array binding signal (z-score),[17],-0.554
same,glycan array binding signal (z-score),[18],-0.55
same,glycan array binding signal (z-score),[19],-0.128
same,glycan array binding signal (z-score),[20],-0.542
same,glycan array binding signal (z-score),[21],-0.553
same,glycan array binding signal (z-score),[22],-0.553
same,glycan array binding signal (z-score),[23],-0.548
same,glycan array binding signal (z-score),[24],-0.552
same,glycan array binding signal (z-score),[25],-0.552
same,glycan array binding signal (z-score),[26],1.74
same,glycan array binding signal (z-score),[27],-0.553
same,glycan array binding signal (z-score),[28],-0.537
same,glycan array binding signal (z-score),[29],-0.551
same,glycan array binding signal (z-score),[30],-0.557

# Reference: the supplement of paper PMC8728848
